These results are taken from patent US9616120B2, “Monoclonal antibodies directed to CD20” (VET THERAPEUTICS, INC., priority 2010, dated 2017).

The target in this test is T1, recombinant canine CD20 (Canis lupus familiaris, UniProt Q3C2E2, A201T/C77Y/G273E/L198V).
T1 construct: are transfected with an expression vector encoding the full-length canine CD20 protein; expressed in transfected cells; host or cells: CHO cells (CHO-DG44)
T1 sequence (Q3C2E2 1-297 C77Y/L198V/A201T/G273E): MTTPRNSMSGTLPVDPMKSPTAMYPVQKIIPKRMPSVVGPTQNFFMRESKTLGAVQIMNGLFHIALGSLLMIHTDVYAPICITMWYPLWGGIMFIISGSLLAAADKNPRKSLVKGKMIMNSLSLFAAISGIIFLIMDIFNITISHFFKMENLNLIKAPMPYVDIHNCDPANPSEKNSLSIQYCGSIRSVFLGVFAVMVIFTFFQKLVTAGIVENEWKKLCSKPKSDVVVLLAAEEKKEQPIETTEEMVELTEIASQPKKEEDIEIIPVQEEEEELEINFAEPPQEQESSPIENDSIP
Put plainly: Competition experiments (epitope mapping) on CHO cells expressing recombinant canine CD20. The test is classed as binding. As to the method: Competition experiments are performed using standard techniques. Briefly, biotinylated recombinant anti-canine CD20 antibodies are titrated on CHO cells expressing recombinant canine CD20. Cells are first incubated with an excess of unlabelled recombinant anti-canine CD20 antibody (25 μg/mL). Thereafter, cells are incubated with a biotin-labeled antibody at 2 μg/mL. After washing, cells are incubated with streptavidin- phycoerythrin and fluorescence is analyzed by flow cytometry. An irrelevant antibody is used as negative control for inhibition. Results are expressed as a ratio between fluorescence intensity of the cells pre-incubated with the unlabelled antibody and the fluorescence intensity obtained for each biotinylated antibody alone. The percentage of inhibition (PI) is calculated by the following formula: PI=[1−(Experimental-Background)/Biotinylated antibody alone−Background)]×100%.

B1: CD20-1: anti-canine CD20 monoclonal antibody; HC SEQ ID NO. 17, LC SEQ ID NO. 20 (antibody, V domains shown)
VH: EIQLQQSGAELVKPGASVKISCKASGYTFTDYYINWVKQRPGQGLEWIGKIGPGSGRTYYNEKFKGKATLTADKSSSTAYIQISSLTSEDSAVYFCAVLSWGQGTTLTVSS
VL: DVQITQTPLTLSVTFGQPASISCKSSQSLLKSDGRTYLNWLLQRPGQSPKRLLYLVSKLDSGVPDRFTGSGSGTDFTLKISRVEAEDLGVYYCWQGTHFPQTFGGGTKLEIK
modifications: canis familiaris/mus musculus
notes: anti-canine CD20 monoclonal antibody; 20
For B1, the “epitope of canine CD20 (in words)” value (conclusion from Table 7) is “recognize different epitopes”. Also, the “percentage of inhibition (PI), labeled antibody CD20-1” value (unlabelled competitor 25 μg/mL, biotin-labeled CD20-1 2 μg/mL) was 111.65%. Also, the “percentage of inhibition (PI), labeled antibody CD20-2” value (unlabelled competitor 25 μg/mL, biotin-labeled CD20-2 2 μg/mL) is −22.08%. In addition, for the setting “unlabelled competitor 25 μg/mL, biotin-labeled CD20-5 2 μg/mL”, the “percentage of inhibition (PI), labeled antibody CD20-5” value is 87.68%.
